Results published in paper PMC4336329 (PLoS ONE, 2015).
The campaign covered roughly 310,000 compounds. About 14,000 (4.5%) showed an effect of 50% or more. The effect is printed as a negative number. This is one part of the list.

The compounds below were run against human ether-à-go-go-related gene (hERG) potassium channel (human, UniProt Q12809) (assay: primary screen, population patch clamp on CHO cells stably expressing hERG).
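Note: peak tail current of the secondary pulse compared with the same well before compound.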

Sequence of human ether-à-go-go-related gene (hERG) potassium channel (Q12809 whole entry, looked up): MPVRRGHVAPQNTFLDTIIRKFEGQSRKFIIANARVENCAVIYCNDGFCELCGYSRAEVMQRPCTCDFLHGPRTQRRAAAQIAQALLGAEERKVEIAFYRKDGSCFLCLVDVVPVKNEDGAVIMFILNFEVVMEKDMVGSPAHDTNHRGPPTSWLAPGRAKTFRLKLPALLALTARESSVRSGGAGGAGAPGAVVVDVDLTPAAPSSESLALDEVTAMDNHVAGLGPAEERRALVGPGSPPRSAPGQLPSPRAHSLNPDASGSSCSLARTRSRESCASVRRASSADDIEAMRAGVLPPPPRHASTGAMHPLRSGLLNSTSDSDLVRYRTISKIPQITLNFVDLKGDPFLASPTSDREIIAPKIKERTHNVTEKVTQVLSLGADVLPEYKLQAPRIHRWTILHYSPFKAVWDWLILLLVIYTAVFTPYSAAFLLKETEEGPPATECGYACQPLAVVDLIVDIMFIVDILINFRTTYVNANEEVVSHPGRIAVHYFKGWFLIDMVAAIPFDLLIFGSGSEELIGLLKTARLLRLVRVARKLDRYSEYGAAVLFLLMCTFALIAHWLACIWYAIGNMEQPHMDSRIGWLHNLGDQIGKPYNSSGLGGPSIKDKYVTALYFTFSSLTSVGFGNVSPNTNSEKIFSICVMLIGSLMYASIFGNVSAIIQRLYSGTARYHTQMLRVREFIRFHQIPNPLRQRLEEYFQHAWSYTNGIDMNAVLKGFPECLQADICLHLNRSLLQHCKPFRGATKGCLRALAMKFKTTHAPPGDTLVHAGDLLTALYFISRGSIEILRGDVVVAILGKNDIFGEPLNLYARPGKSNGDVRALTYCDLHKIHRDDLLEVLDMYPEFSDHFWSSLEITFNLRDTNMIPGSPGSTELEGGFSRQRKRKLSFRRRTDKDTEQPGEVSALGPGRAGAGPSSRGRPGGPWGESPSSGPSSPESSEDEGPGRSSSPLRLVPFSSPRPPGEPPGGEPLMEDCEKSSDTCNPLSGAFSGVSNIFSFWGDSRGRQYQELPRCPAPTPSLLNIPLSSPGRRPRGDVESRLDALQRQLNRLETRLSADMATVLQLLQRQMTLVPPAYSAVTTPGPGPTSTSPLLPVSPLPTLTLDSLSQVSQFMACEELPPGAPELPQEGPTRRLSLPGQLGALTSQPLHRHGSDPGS

Row | SMILES | hERG current change (%, negative = inhibition) at 10uM
1 | O=S(=O)(c1ccc(-n2cnnn2)cc1)N1CCC(N2CCCCC2)CC1 | -38.1%
2 | O=C(CN(C(=O)c1csnn1)c1cccc(F)c1)NCc1ccc2c(c1)OCO2 | -7.22%
3 | CCOC(=O)/C(C#N)=C\c1cn(C)c2ccccc12 | 25.7%
4 | Cc1cccc(N2C(=O)NC(=O)/C(=C\c3cc(C)n(-c4sc5c(c4C#N)CCCC5)c3C)C2=O)c1C | 4.35%
5 | O=C(NC1CCCCC1)c1ccc(-c2ccccc2[N+](=O)[O-])o1 | -22.9%
6 | Cc1nnc(SCC(=O)Nc2nccs2)n1N | -10.7%
7 | COc1ccccc1N(C)S(=O)(=O)c1ccc(C(=O)OCC(=O)Nc2cc(C)on2)cc1 | 14.8%
8 | CN(C)CCCN(C(=O)c1ccc2c(c1)OCCO2)c1nc2cc3c(cc2s1)OCO3.Cl | -56%
9 | COCCNC(=O)c1ccccc1NC(=O)CSc1ccc(C)cc1 | -4.29%
10 | Cc1cc(/C=C2\C(=N)N3N=C(S(C)(=O)=O)SC3=NC2=O)c(C)n1Cc1ccccc1 | -2.95%
11 | Nc1cc[n+](CC(=O)c2ccccc2)cc1.[Br-] | 27%
12 | O=C(CSc1nc(-c2ccccc2)ns1)NCC1CCCO1 (centres unmarked) | 4.01%
13 | O=C1CC(C(=O)Nc2cccc(F)c2)n2c(nc3ccccc32)N1 (centres unmarked) | 21.1%
14 | O=[N+]([O-])c1c(NCCO)cc(N2CCCCC2)c2nonc12 | 6.19%
15 | C=CCOc1ccc(C=Nc2cccc(Cl)c2)c(O)c1 | 4.22%
16 | Cc1nnc(SC(=O)N2c3ccccc3Sc3ccccc32)s1 | 0.134%
17 | O=C(c1ccccc1F)N1CCCc2ccccc21 | 9.8%
18 | CCCc1cc(-n2cnc3ccccc32)n2c(nc3ccccc32)c1C#N | -50.1%
19 | CCOc1ccc(/C=N/n2c(C)nnc2C)cc1OC | 20.2%
20 | Cc1cc(S(=O)(=O)NCc2ccncc2)c(C)cc1Br | -17.7%
21 | CC1(C(=O)Nc2ccc3c(c2)OCCO3)CC1(Cl)Cl (centres unmarked) | 10.1%
22 | Cc1cccc(C)c1NC(=O)C(Cl)C(=O)c1ccccc1 (centres unmarked) | 27.6%

Row | SMILES | hERG current change (%, negative = inhibition) at 10uM
23 | COc1ccc(S(=O)(=O)N2CCCC(C(=O)N3CCCCCC3)C2)cc1 (centres unmarked) | -25.2%
24 | CCN(CCn1cccn1)Cc1nc(-c2ccccc2)no1 | -5.54%
25 | O=C(CN1C(=O)NC2NC(=O)NC21)N/N=C/c1ccccc1O (centres unmarked) | 30.6%
26 | Cc1sc2nc(CN3CCOCC3)nc(N3CCOCC3)c2c1C.O=C(O)C(=O)O | -10.8%
27 | CCOC(=O)C(C)Oc1cccc2c(=O)n(CC(=O)Nc3cccc(OC)c3)ccc12 (centres unmarked) | -19.8%
28 | Cc1ccc(S(=O)CCNC(=O)Cc2ccc(Cl)cc2)cc1 (centres unmarked) | -8.83%
29 | Cc1ccc(CN(C(=O)Cn2nnc3ccccc32)C(C(=O)NCc2ccco2)c2cccs2)cc1 (centres unmarked) | -23.1%
30 | O=C(CN(Cc1ccccc1F)C(=O)c1ccco1)NCc1ccc(F)cc1 | -50.7%
31 | COC(=O)CNc1cc(S(=O)(=O)N2CCCCC2)ccc1Oc1ccc(C(=O)OC)cc1 | 7.36%
32 | CN(NS(C)(=O)=O)c1ncc(C(F)(F)F)cc1Cl | 9.11%
33 | CCN(CC)S(=O)(=O)c1ccc(NC(=O)C2c3ccccc3Oc3ccccc32)cc1 | 3.37%
34 | Cc1ccc(C(=O)N2CCN(c3ccc(NC(=O)Cc4ccccc4)cc3)CC2)cc1 | -71.5%
35 | COc1cccc(C(=O)NC2=NCCS2)c1OC | 1.99%
36 | Cc1ccc(-n2c(-c3ccccc3)cc(=O)nc2C)cc1 | 0.986%
37 | Cc1cc(Cl)ccc1OC(C)C(=O)Nc1ccc([N+](=O)[O-])cn1 (centres unmarked) | -75.9%
38 | O=C1CC(N2CCCc3ccccc32)C(=O)N1c1ccccc1 (centres unmarked) | 7.81%
39 | Cc1ccc(NC(=O)CSC(C)C(=O)NCCc2ccccn2)cc1 (centres unmarked) | 14.3%
40 | O=C(NC1(C(F)(F)F)N=C2SCCN2C1=O)c1ccccc1 (centres unmarked) | 16.5%
41 | Cc1ccc2nc3c(cc(C(=O)NCCCn4ccnc4)n3C)c(=O)n2c1 | -34.1%
42 | Br.COc1ccc(C(=O)Cn2c(=N)n(C)c3ccccc32)cc1 | -28.8%
43 | Cc1nn(Cc2ccccc2)c(C)c1NC(=O)CCCn1nc(C)c([N+](=O)[O-])c1C | -16.3%
44 | COC(=O)C(=C/C=C/N1CCOCC1)C(=O)OC | 12.6%
